# Laboratory results taken from PubChem BioAssay AID493208 (National Center for Advancing Translational Sciences (NCATS), 2011).
# Out of some 44,000 compounds screened, about 340 (0.77%) were called active. Not shown: some 5% with an inconclusive outcome. The call rests on the fitted dose curve; in most records, active means well fitted inhibition curve with a large enough effect; inconclusive means small, poorly fitted or top-dose-only effect; inactive means flat fitted curve, though single readings scatter. This is one part of the list.
# Assay: Acumen qHTS Assay for Inhibitors of the mTORC1 Signaling Pathway in MEF (Tsc2-/-, p53-/-) Cells: Sytravon; further: nearly all actives have a fitted effect of over 50% in size;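 on activity change, negative = inhibition: plate controls were DMSO for no effect and rapamycin for full effect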
# Conditions: phospho-rpS6 immunofluorescence/PI, 24 h; series mostly up to 38.3 µM; activity change, negative = inhibition: at the top concentration
# In short: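 Cell-based qHTS: Tsc2-/- p53-/- MEF, 24 h cpd, 37 °C; fix/perm, anti-phospho-S6 Alexa-488 + PI; Acumen 488 nm scan; pS6/PI ratio, % positive cells; rapamycin 7.5 nM = inhibition ref; PI count = viability.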
# Potency means the concentration at half of the fitted maximal effect.
SMILES,"activity change, negative = inhibition",Potency
CC(C)c1ccc(OCC(=O)N2CCN(CCc3ccncc3)CC2)cc1,inactive: -0.415%,
COc1ccc(-n2c(/C=C\c3ccccc3F)nc3ccccc3c2=O)c(OC)c1,inactive: 8.55%,
Cc1cc(OCC(=O)N2CCN(CCc3ccncc3)CC2)ccc1Cl,inactive: 1.26%,
CSc1ccc(/C=C/c2nc3ccccc3c(=O)n2-c2cccc(Cl)c2C)cc1,inactive: 8.85%,
CCOc1ccc(CN(CCc2ccc3c(c2)OCO3)Cc2cc(OC)ccc2O)cc1,inactive: -1.28%,
CCc1cccc(NC(=O)CN2C(=O)CN=C(c3ccccc3F)c3cc(Cl)ccc32)c1,inactive: -11.6%,
COc1ccc(OC)c(C(c2c(O)c3ccccc3oc2=O)c2c(C)n(C)n(-c3ccccc3)c2=O)c1 (stereo not given),inactive: -0.733%,
O=C(Nc1ccccc1C(F)(F)F)c1cccn(Cc2ccccc2)c1=O,inactive: -1.34%,
O=C(COc1ccccc1[N+](=O)[O-])N1CCN(CCc2ccccn2)CC1,inactive: 1.14%,
Cc1ccccc1-n1c(/C=C/c2ccccc2F)nc2ccccc2c1=O,inactive: -10.2%,
N#Cc1cc2c(nc1SCC(=O)Nc1ccc(Cl)c(C(F)(F)F)c1)C1CCN2CC1,inactive: 8.9%,
COc1cccc(-n2c(/C=C/c3cccc(C)c3)nc3ccccc3c2=O)c1,inactive: -6.57%,
Cc1cccc(-n2c(CC3C(=O)Nc4ccc(C)cc43)nc3ccccc3c2=O)c1 (stereo not given),inactive: 3.72%,
Cc1cccc(Cn2cccc(C(=O)Nc3nc4ccccc4s3)c2=O)c1,inactive: -10.1%,
Cc1ccc(-n2c(/C=C/c3cccc4ccccc34)nc3ccccc3c2=O)cc1,inactive: 8.83%,
Cc1cccc(CN2C(=O)CN=C(c3ccccc3Cl)c3cc(Cl)ccc32)c1,inactive: -3.36%,
O=C(Nc1ccc(OC(F)(F)F)cc1)c1cccn(Cc2ccccc2Cl)c1=O,inactive: -4.52%,
O=C(c1ccc2c(c1)N(Cc1c(F)cccc1Cl)C(=O)c1ccccc1S2)N1CCC2(CC1)OCCO2,inactive: -1.22%,
Cc1ccc(C)c(CN2C(=O)c3ccccc3Sc3ccc(C(=O)N4CCC5(CC4)OCCO5)cc32)c1,inactive: 7.27%,
CCn1c(CN2CCN(C)CC2)nc2ccccc21,inactive: -0.803%,
CCSc1nnc(NC(=O)c2cccn(Cc3ccc(Cl)cc3)c2=O)s1,inactive: -0.122%,
Cc1cccc(-n2c(/C=C/c3cccc4ccccc34)nc3ccccc3c2=O)c1,inactive: 6.26%,
O=c1c2ccccc2nc(/C=C\c2cccc(Br)c2)n1-c1ccc(O)cc1,inactive: -29.8%,
Cc1ccc(-n2c(/C=C/c3cccc(C(F)(F)F)c3)nc3ccccc3c2=O)cc1,inactive: 9.43%,
NC(=O)c1ccc(NC(=O)c2cccn(Cc3ccccc3)c2=O)cc1,inactive: 3.17%,

SMILES,"activity change, negative = inhibition",Potency
Cc1c(C(c2ccc(O)cc2)c2c(O)c3ccccc3oc2=O)c(=O)n(-c2ccccc2)n1C (stereo not given),inactive: -1.95%,
CC(=O)c1ccc(NC(=O)c2sc3nc4c(cc3c2N)N2CCC4CC2)cc1,inactive: -0.128%,
Cc1ccc2scc(N3CCN(C)CC3)c(=O)c2c1,inactive: -7.99%,
Cc1ccc(-n2c(/C=C/c3ccccc3)nc3ccccc3c2=O)cc1C,inactive: 4.72%,
CCOc1ccc(CN(CCc2ccc3c(c2)OCO3)Cc2cccc(Br)c2)cc1,inactive: -6.61%,
O=C(Nc1nc2ccccc2s1)c1cccn(Cc2ccccc2)c1=O,inactive: -2.22%,
CCCc1nc(SC)ncc1C(=O)Nc1ccc(Cl)cc1C(=O)c1ccccc1,inactive: -5.31%,
Cc1nnc(NC(=O)c2cccn(Cc3ccccc3)c2=O)s1,inactive: -4.58%,
Cc1cccc(OC(C)C(=O)NCC2(N(C)C)CCCCC2)c1C (stereo not given),inactive: -1.17%,
CCOc1ccc(CN(CCc2ccc3c(c2)OCO3)Cc2ccc(CC)cc2)cc1,inactive: 0.989%,
Cc1oc2cc3oc(=O)c(CCC(=O)N4CCCCC4)c(C)c3cc2c1C,inactive: -3.22%,
Cc1ccccc1-n1nc(C)c2c1NC(=O)CSC2c1ccccc1C(F)(F)F (stereo not given),inactive: -1.99%,
COc1ccccc1CN1CCN(C(=O)COc2cccc(C)c2)CC1,inactive: 6.02%,
COc1ccc(NC(=O)CN2C(=O)CN=C(c3ccccc3)c3ccccc32)c(OC)c1,inactive: -5.67%,
COc1ccc(C2CC(=O)Oc3c2c(=O)oc2ccccc32)c(OC)c1OC (stereo not given),inactive: -1.19%,
Cc1ccc(Cn2cccc(C(=O)Nc3ccc(C)c(Cl)c3)c2=O)cc1,inactive: 2.05%,
Cc1cc(OCC(=O)N2CCN(CCc3ccncc3)CC2)cc(C)c1Cl,inactive: 2.51%,
COc1ccc(NC(=O)CCc2nc(C3=CCN(Cc4cccc(C)c4)CC3)no2)c(OC)c1,inactive: -16.7%,
COc1ccc(OC)c(CCNCc2c(C(=O)O)c(C)n(Cc3ccc(F)cc3Cl)c2C)c1,inactive: 0.609%,
Cc1cccc(C)c1OCC(=O)Nc1ccc(Cl)cc1C(=O)c1ccccc1,inactive: -1.11%,
O=C(NCCSc1c(-c2ccc(F)cc2)[nH]c2ccccc12)c1ccc(S(=O)(=O)N2CCOCC2)cc1,,active: 14.7 µM
O=C(COc1ccccc1[N+](=O)[O-])N1CCN(CCc2ccncc2)CC1,inactive: 0%,
COc1ccc(C)cc1NC(=O)c1cccn(Cc2ccccc2Cl)c1=O,inactive: 0.8%,
O=C1CC(c2ccccc2Br)c2c(c3ccccc3oc2=O)O1 (stereo not given),inactive: -4.32%,
Cc1ccc(-n2c(/C=C/c3ccccc3)nc3ccccc3c2=O)cc1Cl,inactive: 5.73%,
